Data: publication PMC3244446
Results are given in words; binding and its absence hold for the method and conditions named. Binding seen in cells or lysates may run through a third protein. Some results given as binding are weak or reduced against the parent protein; the word gives no strength.

Amino acid sequences for entries named in this document (tags omitted). A change or cut given only in a name is not applied to a line headed by its entry. Chains listed by the source or under a name are the forms on record and can include a tag or linker. Residues count along the entry.
GST-tagged CD44 hyaluronan binding domain 21–132 (CD44HABD) (P16070, residues 21-132): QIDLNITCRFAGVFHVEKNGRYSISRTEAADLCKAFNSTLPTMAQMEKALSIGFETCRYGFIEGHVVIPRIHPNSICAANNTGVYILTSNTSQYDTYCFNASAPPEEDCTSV
GST-tagged CD44HABD^R41AR78SY79S (CD443MUT), non-HA-binding triple mutant (P16070, form named): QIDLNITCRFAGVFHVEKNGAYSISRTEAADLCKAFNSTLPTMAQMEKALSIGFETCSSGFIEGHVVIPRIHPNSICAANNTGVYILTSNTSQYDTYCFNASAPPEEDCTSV
C-terminally Flag-tagged CD44 standard isoform, full-length (P16070, form named): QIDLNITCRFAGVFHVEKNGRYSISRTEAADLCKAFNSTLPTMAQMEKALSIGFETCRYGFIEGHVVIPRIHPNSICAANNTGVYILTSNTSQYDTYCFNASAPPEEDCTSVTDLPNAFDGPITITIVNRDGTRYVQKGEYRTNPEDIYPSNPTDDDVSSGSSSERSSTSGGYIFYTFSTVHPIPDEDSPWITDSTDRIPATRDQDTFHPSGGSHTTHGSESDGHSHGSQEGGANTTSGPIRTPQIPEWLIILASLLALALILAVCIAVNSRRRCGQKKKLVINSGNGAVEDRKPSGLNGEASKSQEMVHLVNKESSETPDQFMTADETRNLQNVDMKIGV
UniProt P08670: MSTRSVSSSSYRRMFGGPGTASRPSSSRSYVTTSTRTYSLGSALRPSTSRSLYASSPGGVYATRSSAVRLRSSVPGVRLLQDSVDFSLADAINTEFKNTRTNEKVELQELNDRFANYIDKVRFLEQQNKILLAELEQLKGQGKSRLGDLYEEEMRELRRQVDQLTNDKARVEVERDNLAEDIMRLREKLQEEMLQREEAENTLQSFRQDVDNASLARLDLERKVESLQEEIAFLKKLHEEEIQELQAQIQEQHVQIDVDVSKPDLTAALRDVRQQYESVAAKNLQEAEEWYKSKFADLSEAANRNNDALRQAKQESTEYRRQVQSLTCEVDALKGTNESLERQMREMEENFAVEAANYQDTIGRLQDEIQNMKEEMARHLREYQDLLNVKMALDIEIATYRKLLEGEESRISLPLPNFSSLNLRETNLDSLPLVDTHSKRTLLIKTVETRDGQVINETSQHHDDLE

Tests used:
[1] = target: GST-tagged CD44 hyaluronan binding domain 21–132 (CD44HABD) (human) (UniProt P16070); assay: pull-down; GST-CD44HABD or GST-CD443MUT on glutathione beads, HUVEC lysate, overnight 4°C; immunoblot with anti-vimentin V9; only the target purified
[2] = target: GST-tagged CD44HABD^R41AR78SY79S (CD443MUT), non-HA-binding triple mutant (human) (UniProt P16070); assay: as above
[3] = target: GST-tagged CD44 hyaluronan binding domain 21–132 (CD44HABD) (human) (UniProt P16070); assay: pull-down; GST-CD44HABD or GST-CD443MUT on glutathione beads, lysates of MCF-7 cells transfected with full-length vimentin or deletion mutants; immunoblot with tag-specific antibodies; only the target purified
[4] = target: GST-tagged CD44HABD^R41AR78SY79S (CD443MUT), non-HA-binding triple mutant (human) (UniProt P16070); assay: as above
[5] = target: C-terminally Flag-tagged CD44 standard isoform, full-length (human) (UniProt P16070); assay: co-IP; MCF-7 cells overexpressing CD44-Flag and vimentin-Myc; lysis in 40 mM Hepes pH 7.4, 120 mM NaCl, 1 mM EDTA, 0.6% CHAPS; anti-Flag-M2 affinity gel overnight 4°C; blot with anti-Myc

Substance	binding [1]	binding [2]	binding [3]	binding [4]	binding [5]
endogenous vimentin of HUVEC (from UniProt P08670 1-466)	binds	binds	–	–	–
vimentin deletion mutant VIM407-466 (tail domain) (from UniProt P08670 407-466) (domain or fragment)	–	–	no binding	no binding	–
vimentin deletion mutant VIM1-96 (head domain) (from UniProt P08670 1-96) (domain or fragment)	–	–	binds	binds	–
full-length vimentin expressed in MCF-7 cells for GST pull-down (from UniProt P08670 1-466)	–	–	binds	binds	–
vimentin deletion mutant VIM1-245 (head domain and alpha-helices 1A-B) (from UniProt P08670 1-245) (domain or fragment)	–	–	binds	binds	–
vimentin deletion mutant VIM246-466 (C-terminal half from alpha-helices 2A-B) (from UniProt P08670 246-466) (domain or fragment)	–	–	no binding	no binding	–
vimentin deletion mutant VIM97-466 (lacks the head domain) (from UniProt P08670 97-466) (domain or fragment)	–	–	no binding	no binding	–
Myc-tagged vimentin, full-length (from UniProt P08670 1-466)	–	–	–	–	binds
